± gives the standard deviation. Only a part is listed here, and it is no random draw.

The test system of the experiment is MIWI (PIWIL1) piRISC loaded with piRNA #1 (30 nt). The experiment can be described thus: pre-steady-state target cleavage rate (min^-1); MIWI and MILI are mouse PIWI proteins and EfPiwi is from a freshwater sponge; tags in brackets are library labels; higher = faster piRNA-guided slicing of the target. The following applies: guide: piRNA #1 5'p-UGAGGUAGUAGGUUGUAUAGUAUCCAGAGG; auxiliary factor: 500 nM mouse GTSF1. Put shortly: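 Using HEPES–potassium acetate buffer at 33 °C, 1 nM active affinity-purified piRISC with a single synthetic guide was mixed with 0.1 nM transcribed, DNA-blocked target RNA library for 0–8 or 0–960 min, with or without 500 nM GTSF1 partner protein. Uncleaved targets were sequenced and normalised to depth and to weakly complementary targets, and three trials were pooled with k3 capped at 0.0001 min^-1. A burst-and-steady-state fit gave the pre-steady-state cleavage rate.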
Take CCACUGGAUACUAAACAACCUACUACCUCA: the “pre-steady-state target cleavage rate” value is 1.86 ± 0.11.
In the case of GCUCUGGACUACUAUACAACCUACUACCUCA it was 1.45 ± 0.1.
Turning to GGAGACCUAUGAUAUGUUCCUUCUAGCUCA, the “pre-steady-state target cleavage rate” value is under 0.0001.
In the case of GCUCUGGAUAGUAUACAACCUACUAGCUCA, the “pre-steady-state target cleavage rate” value amounted to 0.413 ± 0.054.
For the sequence GGAGACCUAACUAUACAACCUACUACCUGCA, the “pre-steady-state target cleavage rate” value was found to be 0.731 ± 0.072.
With GGACUGGAUACUAUACAACCAAGUACCUCA, the “pre-steady-state target cleavage rate” value was determined as 0.0216 ± 0.004.
For the sequence GGAGUGCAUUCUAUACAACCUACUACCUCA, the “pre-steady-state target cleavage rate” value was 1.32 ± 0.11.
The same measure for GGACUGGUUACUAUAGAACCUACUACCUCA: 1.24 ± 0.097.
In the case of GGUCUGGAUAGCUAUACAACCUACUACCUCA it was 0.662 ± 0.056; in that of GGAGUGGAUACUAUAGAACCUACUACGUCA, 0.0195 ± 0.005.
For the sequence GGUCUGGAUACUAUACAACCUACUACUUCA, the “pre-steady-state target cleavage rate” value stood at 1.32 ± 0.095.
Regarding GGUCUCGAUAGUAUACAACCUACUACCUCA, the “pre-steady-state target cleavage rate” value was determined as 1.67 ± 0.11.
On to GGACUGGUUACUAUACAACCUACUUCCUCA, for which the “pre-steady-state target cleavage rate” value was determined as 0.0107 ± 0.0042.
Consider GGACUGGAUACUAUACAACCUACUACGACA, for which the “pre-steady-state target cleavage rate” value came out at 0.158 ± 0.029.
For GGAGAGGAUACUAUACAUGCUACUACCUCA, the “pre-steady-state target cleavage rate” value worked out at 0.486 ± 0.036.
GGAGACCUAUGUAUACAACCUACUACGACA: the “pre-steady-state target cleavage rate” value was found to be 0.00645 ± 0.002.
Regarding GGAGACCUAUCUAUAGAUCCUACUACCUCA, the “pre-steady-state target cleavage rate” value worked out at 0.0433 ± 0.0069.
As to GGAGAGGAUACUAUACAACCUUCUACCUGA, the “pre-steady-state target cleavage rate” value is 0.0813 ± 0.015.
In the case of GGAGACGAUACUAUACAACCUACUACGCUCA it was 0.923 ± 0.067; in that of GCUCUGGAUACUUAACAACCUACUACCUCA, 1.32 ± 0.093.
As to GCUCUGGAUACUAUACAACCUUCUACGUCA, the “pre-steady-state target cleavage rate” value was found to be 0.436 ± 0.034.
Take GGAGACCUAACUAUACAACCUACUCACCUCA: the “pre-steady-state target cleavage rate” value was found to be 0.664 ± 0.058.
Turning to GGAGACCUAUCUAUAUAACCUACUACCUCA, the “pre-steady-state target cleavage rate” value came to 0.755 ± 0.06.
The same measure for GGAGACCAUUCUAUACAACCUUCUACCUCA: 0.236 ± 0.019; for GGACUGGAAACUAUACAACCUACUACCACA: 0.408 ± 0.044.
GGAGACCUAUCUAUACAAGCUAGUACCUCA: the “pre-steady-state target cleavage rate” value was found to be 0.193 ± 0.02.
In the case of GCUCUGGAUACUAUACAACCUACUCCCUCA it was 1.18 ± 0.083; in that of GGAGACGAUACUAUAUAACCUACUACCUCA, 1.94 ± 0.12.
As for GCAUCUGGAUACUAUACAACCUACUACCUCA, the “pre-steady-state target cleavage rate” value was determined as 1.82 ± 0.087.
The same measure for GGAGACCUAUGUAUACAACCUACUACUCUCA: 0.0944 ± 0.012; for GGAGACCUAACUAUACAACGUACUACCACA: 0.165 ± 0.031.
The same measure for GGAGACCAUUGUAUACAACCUACUACCUCA: 0.121 ± 0.024; for GGAGUGGAUACUAUUGAACCUACUACCUCA: 0.298 ± 0.028; for GGAGACCUAACUAUAGAACCUACUUCCUCA: 0.0104 ± 0.0059.
In the case of GGAGUUGGAUACUAUACAACCUACUACCUCA it was 1.55 ± 0.074; in that of GGUCUGGAUACUAUUCAACCUACUACCUCA, 1.7 ± 0.11; in that of CCUCUGGAUACUAAUACAACCUACUACCUCA, 1.83 ± 0.11.
Consider GGAGACCUUACUUAUCAACCUACUACCUCA, for which the “pre-steady-state target cleavage rate” value came to 0.014 ± 0.0046.
As for GGAGUGGAUACAUACAACCUACUACCUCA, the “pre-steady-state target cleavage rate” value was determined as 1.15 ± 0.091.
In the case of GGAGACCUAUGAUAUGUUCCUACAUCCUCA it was under 0.0001.
